The campaign covered roughly 310,000 compounds. About 2,200 (0.71%) showed an effect of 50% or more. The effect is printed as a negative number. Some of the results follow.
What follows are molecules tested against human ether-à-go-go-related gene (hERG) potassium channel (human, UniProt Q12809) (assay: primary screen, population patch clamp on CHO cells stably expressing hERG).
Sequence of human ether-à-go-go-related gene (hERG) potassium channel (Q12809 whole entry, looked up): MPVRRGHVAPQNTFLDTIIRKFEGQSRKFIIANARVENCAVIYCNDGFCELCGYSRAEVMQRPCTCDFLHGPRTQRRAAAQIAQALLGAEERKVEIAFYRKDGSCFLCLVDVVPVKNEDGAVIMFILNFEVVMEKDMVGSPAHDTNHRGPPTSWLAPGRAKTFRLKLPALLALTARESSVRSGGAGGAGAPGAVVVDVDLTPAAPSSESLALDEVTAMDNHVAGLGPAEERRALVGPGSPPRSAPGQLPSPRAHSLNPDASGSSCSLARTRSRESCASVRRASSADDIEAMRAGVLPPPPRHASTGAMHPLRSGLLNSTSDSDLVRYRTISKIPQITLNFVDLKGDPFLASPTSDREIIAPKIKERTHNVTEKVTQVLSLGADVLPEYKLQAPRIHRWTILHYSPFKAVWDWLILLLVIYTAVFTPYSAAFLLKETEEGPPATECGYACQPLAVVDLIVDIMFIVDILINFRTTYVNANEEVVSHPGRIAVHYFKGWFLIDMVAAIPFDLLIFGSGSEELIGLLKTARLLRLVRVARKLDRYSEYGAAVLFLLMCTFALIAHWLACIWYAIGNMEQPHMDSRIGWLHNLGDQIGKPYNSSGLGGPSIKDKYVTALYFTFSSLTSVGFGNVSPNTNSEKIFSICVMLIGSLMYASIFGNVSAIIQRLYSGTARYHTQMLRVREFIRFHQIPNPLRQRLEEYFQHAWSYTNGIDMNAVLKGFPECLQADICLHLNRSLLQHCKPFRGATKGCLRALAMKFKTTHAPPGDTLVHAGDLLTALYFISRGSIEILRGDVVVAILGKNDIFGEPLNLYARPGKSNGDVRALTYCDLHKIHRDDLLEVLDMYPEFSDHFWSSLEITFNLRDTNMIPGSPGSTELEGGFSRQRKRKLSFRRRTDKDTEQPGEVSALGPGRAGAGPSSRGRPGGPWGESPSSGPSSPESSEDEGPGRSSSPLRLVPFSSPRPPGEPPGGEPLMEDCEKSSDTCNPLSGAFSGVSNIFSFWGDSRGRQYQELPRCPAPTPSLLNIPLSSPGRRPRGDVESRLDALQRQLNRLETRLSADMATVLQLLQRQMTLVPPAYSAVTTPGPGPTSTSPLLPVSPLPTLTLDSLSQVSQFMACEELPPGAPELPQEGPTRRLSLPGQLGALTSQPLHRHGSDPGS
For `CC(C)CNC(=O)c1ccc(NC(=O)c2ccccc2[N+](=O)[O-])cc1`, the “hERG current change (%, negative = inhibition) at 1uM” value was 18.4%. For `CN(C(=O)COC(=O)/C=C/c1ccccc1[N+](=O)[O-])c1ccccc1`, the “hERG current change (%, negative = inhibition) at 1uM” value was -2.7%. In the case of `O=C(Nc1ncn[nH]1)c1cc(S(=O)(=O)Nc2ccc(Cl)cc2)ccc1Cl`, the “hERG current change (%, negative = inhibition) at 1uM” value is reported as 6.69%. `COc1ccc(S(=O)(=O)N(C)CC(=O)NCc2ccccn2)cc1` was tested, and the “hERG current change (%, negative = inhibition) at 1uM” value was 14.3%. With `O=C(N/N=C/c1ccc(F)c(F)c1)c1cccc(S(=O)(=O)N2CCCCC2)c1` the “hERG current change (%, negative = inhibition) at 1uM” value was 12.5%. For `CCc1ccc(OCC(=O)NNC(=O)c2cnccn2)c(Br)c1`, the “hERG current change (%, negative = inhibition) at 1uM” value was 5.9%. `Cc1cc(-c2cc(C(=O)NCc3ccccc3)on2)nc(S(C)(=O)=O)n1` was tested, and the “hERG current change (%, negative = inhibition) at 1uM” value was 15.9%. In the case of `Cc1nc2ccccc2nc1OCC(=O)Nc1ccc(F)cc1`, the “hERG current change (%, negative = inhibition) at 1uM” value is reported as 19.1%. For `CCOC(=O)c1[nH]c2ccccc2c1NC(=S)Nc1cccc(C)c1C`, the “hERG current change (%, negative = inhibition) at 1uM” value was 4.85%. For `COc1ccc(OC)c(NC(=O)CNC(=O)c2ccc([N+](=O)[O-])cc2)c1`, the “hERG current change (%, negative = inhibition) at 1uM” value was 4.17%. With `C1=C(c2ccccc2)Nc2nnnn2C1c1cccs1` (stereo not drawn) the “hERG current change (%, negative = inhibition) at 1uM” value was -0.713%. For `C=CS(=O)(=O)c1ccc(Oc2ccc(S(=O)(=O)C=C)cc2)cc1`, the “hERG current change (%, negative = inhibition) at 1uM” value was -11.1%. For `COc1ccccc1NC(=O)Nc1cnccn1`, the “hERG current change (%, negative = inhibition) at 1uM” value was -0.567%. In the case of `COc1cc2c(cc1OC)C1=C(C#N)CC/C(=N\S(=O)(=O)c3ccccc3)N1CC2`, the “hERG current change (%, negative = inhibition) at 1uM” value is reported as 10.5%. `Cc1ccc(-c2nn(-c3ccccc3)cc2/C=N/n2c(-c3cccs3)n[nH]c2=S)cc1` was tested, and the “hERG current change (%, negative = inhibition) at 1uM” value was 15%. With `CCCCS(=O)(=O)/C=C/[C@H]1[C@H](S(=O)(=O)CCCC)[C@H]2C=C[C@@H]1C2` the “hERG current change (%, negative = inhibition) at 1uM” value was 5.33%. With `CC(Sc1nnc(-c2cccs2)n1-c1ccccc1)C(=O)NCc1ccco1` (stereo not drawn) the “hERG current change (%, negative = inhibition) at 1uM” value was -39.3%. For `COc1cccc(OCC(=O)N(C)Cc2nc(-c3cccc(C)c3)no2)c1`, the “hERG current change (%, negative = inhibition) at 1uM” value was 4.82%. For `COc1ccc(NC(=O)CN(C)CC(=O)NCC(=O)Nc2ccc(F)cc2)cc1`, the “hERG current change (%, negative = inhibition) at 1uM” value was -3.56%. In the case of `N#Cc1ccccc1S(=O)(=O)N1CCN(CC(O)c2ccccc2)CC1.O=C(O)C(=O)O` (stereo not drawn), the “hERG current change (%, negative = inhibition) at 1uM” value is reported as 9.53%. `CC(C)Oc1ccc(C(=O)NN2C(=O)NC3(CCCCC3)C2=O)cc1` was tested, and the “hERG current change (%, negative = inhibition) at 1uM” value was 6.94%. `CC1CCN(C(=O)c2ccc(S(=O)(=O)N3CCCC3)cc2)CC1` was tested, and the “hERG current change (%, negative = inhibition) at 1uM” value was 9.44%. In the case of `Cn1c(=S)[nH]c2c(c1=O)C(C)(C)Cc1ccccc1-2`, the “hERG current change (%, negative = inhibition) at 1uM” value is reported as 10.7%. For `Cc1ccc(Cl)cc1N1CCN(S(=O)(=O)c2ccc(-c3ccc(=O)[nH]n3)o2)CC1`, the “hERG current change (%, negative = inhibition) at 1uM” value was -12.2%.
